Whole data set: some 33,000 sequences, median “E-score (-0.5 to 0.5)” near -0.035, cut for the highest 2% near 0.35. Some of the results follow.
Each sequence was assayed against T1, Pdr3 (UniProt P33200) (assay: PBM E-score (8-mer binding enrichment) (E-score (-0.5 to 0.5)); higher = stronger / more preferred TF binding; most listed sequences are background and not binding sites). Details: protein concentration: 200 nM; construct: GST-full length.
T1 sequence: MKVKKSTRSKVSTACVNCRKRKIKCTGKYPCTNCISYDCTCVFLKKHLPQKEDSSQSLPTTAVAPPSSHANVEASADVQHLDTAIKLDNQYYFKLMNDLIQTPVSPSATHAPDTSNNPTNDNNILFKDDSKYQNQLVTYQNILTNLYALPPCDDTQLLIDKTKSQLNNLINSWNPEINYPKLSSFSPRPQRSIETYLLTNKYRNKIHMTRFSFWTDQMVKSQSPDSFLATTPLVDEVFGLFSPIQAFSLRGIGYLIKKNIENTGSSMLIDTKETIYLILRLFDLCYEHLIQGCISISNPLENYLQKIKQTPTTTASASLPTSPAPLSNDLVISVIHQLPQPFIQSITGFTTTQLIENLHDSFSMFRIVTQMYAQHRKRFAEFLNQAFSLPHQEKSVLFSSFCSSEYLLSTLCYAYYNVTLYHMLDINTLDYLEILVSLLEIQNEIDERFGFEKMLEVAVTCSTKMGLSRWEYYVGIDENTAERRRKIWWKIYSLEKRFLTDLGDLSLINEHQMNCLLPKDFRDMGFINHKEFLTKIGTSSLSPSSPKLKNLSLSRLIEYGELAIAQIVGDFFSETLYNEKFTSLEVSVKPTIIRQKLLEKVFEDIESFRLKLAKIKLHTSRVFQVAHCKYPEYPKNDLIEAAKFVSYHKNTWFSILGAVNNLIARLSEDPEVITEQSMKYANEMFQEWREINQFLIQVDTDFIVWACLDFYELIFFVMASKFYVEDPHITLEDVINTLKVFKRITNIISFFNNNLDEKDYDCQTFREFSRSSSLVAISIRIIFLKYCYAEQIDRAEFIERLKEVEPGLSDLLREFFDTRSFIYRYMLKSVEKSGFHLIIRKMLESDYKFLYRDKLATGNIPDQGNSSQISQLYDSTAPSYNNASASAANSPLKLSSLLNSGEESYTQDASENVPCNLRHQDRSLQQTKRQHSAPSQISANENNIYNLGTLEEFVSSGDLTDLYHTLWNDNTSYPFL
Method in brief: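 Detection of bound protein used fluorescent anti-GST, with scans normalised by masliner. The proteins were GST-tagged yeast transcription factors applied at about 100-200 nM to universal all-10-mer Agilent arrays made double-stranded by primer extension. Each ungapped eight-base word, pooled with its reverse complement, was scored with an E-score from the Universal PBM Analysis Suite.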

Row | Sequence | PBM E-score
1 | ACGAATTC | 0.0596
2 | CGCACCAA | 0.0849
3 | GGGATCGA | 0.0956
4 | ACCGTACC | 0.0374
5 | GTCCATCA | -0.105
6 | GTAAGGCA | -0.235
7 | AGGTCCCG | 0.322
8 | CACGGCTG | 0.113
9 | CCCCCGGC | 0.037
10 | ATATGGAG | 0.0651
11 | GATCCCGA | 0.317
12 | ATGCAGAG | -0.104
13 | ATGGCGAA | 0.16
14 | GACAACTC | 0.139
15 | ACCCCCTC | -0.296
16 | CCATGGTC | -0.143
17 | AAAAACAA | 0.0667
18 | CGTCCTCA | -0.154
19 | GGCTGAGA | -0.00025
20 | CGGTCAAA | 0.146
21 | GGAGGAAC | 0.139
22 | ATAAGGCG | -0.0262
23 | AGCTCAAA | 0.0219
24 | CGACGTGA | -0.036
25 | ATCTCAAG | 0.00406

Row | Sequence | PBM E-score
26 | AGGCTTGA | -0.135
27 | CAAGACTC | -0.0856
28 | CCGGTCAA | 0.233
29 | CGGCACCC | 0.156
30 | CATCGCGA | 0.0669
31 | CCAGTTCA | 0.00274
32 | GAGGATAC | -0.18
33 | CCTCAGTA | -0.115
34 | AATCATTA | -0.213
35 | CAGGTGGC | -0.197
36 | ATAGTTGC | 0.0259
37 | ACTTGAAT | -0.0436
38 | ACCAGCCG | 0.196
39 | CGTAGTCA | -0.0814
40 | TACAGAAA | -0.0516
41 | CGACCTCC | 0.208
42 | AGGGGAAG | -0.231
43 | CCTGTGTC | -0.192
44 | CGTAGTAC | -0.0772
45 | GATCGGGA | 0.171
46 | CTAAATAG | -0.161
47 | AGTCAATG | -0.257
48 | AAAGGGGT | -0.236
49 | CCTACTTC | -0.126
50 | ATATACAC | -0.00957

Row | Sequence | PBM E-score
51 | AACAACGG | 0.187
52 | CCGCTCAA | 0.142
53 | GCCTCCGA | 0.139
54 | ATCAGCGC | 0.207
55 | AGACACTG | -0.147
56 | CTGCATCA | -0.0534
57 | GCTGGGCC | -0.195
58 | CGGGAATC | 0.334
59 | TATTCACA | 0.13
60 | CACTCGCG | 0.0224
61 | TAGTTTGA | -0.0633
62 | CTCGTACA | -0.121
63 | ACGTGTGA | -0.23
64 | ATAACGCC | 0.0768
65 | ACTGTTCG | -0.0931
66 | ATCGCGTA | -0.0847
67 | AACTCTTC | -0.154
68 | TAAACGTA | -0.137
69 | AACCGGTG | 0.235
70 | ACCTATGG | -0.133
71 | CTATCCCA | -0.0312
72 | GAGAAACC | 0.0126
73 | AGACGAGG | -0.119
74 | CCTCCTTA | -0.298
75 | AGTAATTA | -0.0198

Row | Sequence | PBM E-score
76 | CGGCCCAC | -0.0237
77 | GGCATCGA | -0.0672
78 | CCCTCCGC | 0.163
79 | AATACACA | -0.0767
80 | ACTTCAGA | -0.0406
81 | TAGCGCCA | -0.218
82 | CAACTGAG | -0.0168
83 | GACAACCA | -0.00959
84 | CGGTCAAC | 0.176
85 | AGACGCCG | 0.153
86 | GAAGCCGA | 0.287
87 | TAGGGATA | -0.113
88 | CTGGTTAA | -0.0299
89 | CCTCTTAG | 0.0663
90 | ATGTGGAA | 0.0594
91 | GGAATAAC | 0.31
92 | ACGCGGAT | 0.244
93 | ATTTCCCG | 0.369
94 | TAGAGGAA | -0.0807
95 | ATCACGCA | 0.0202
96 | AAAGCGCT | 0.163
97 | GTAGCGGA | 0.251
98 | CGTCGGGA | 0.309
99 | CTGGTCGC | 0.0352
100 | ATTGGCAA | -0.0742

Row | Sequence | PBM E-score
101 | CGTCACTA | 0.106
102 | CCAATCAG | -0.225
103 | AGCGGCAG | 0.0528
104 | CCGTGTTA | 0.145
105 | ACCTTTAG | -0.134
106 | ACTAAGGC | -0.179
107 | ATGTACTA | -0.0639
108 | CCTGTTAA | -0.127
109 | ATAGAACA | -0.059
110 | AAAGGTCT | -0.263
111 | AGAGTGTA | -0.0716
112 | ATTGTTAA | -0.0968
113 | CACCGCTA | -0.118
114 | CTGTTAAG | -0.337
115 | GTCGATTA | 0.00988
116 | TCACGTAA | -0.224
117 | CGGCCAAA | 0.208
118 | TCCATGAA | -0.00849
119 | CGAGCAAC | 0.0747
120 | GGTTACCA | 0.137
121 | GCCCCCGC | 0.149
122 | ACGGCCAT | -0.0757
123 | GACGCTGA | -0.184
124 | GCTTGACA | -0.0842
125 | AACTGTGT | 0.0557

Row | Sequence | PBM E-score
126 | AGCAAGCA | -0.241
127 | CCGGCTTC | 0.322
128 | GAGGGTGC | -0.232
129 | AAGTTGAT | 0.00488
130 | CCTCTCTC | -0.118
131 | AGTGTCTG | -0.1
132 | ACTGATGC | -0.0477
133 | CATAATCA | -0.0129
134 | TCGTGCAA | -0.0503
135 | CGCATGAC | 0.0259
136 | ACCCGGTC | 0.199
137 | ACTTATTC | 0.124
138 | AAGCTTCG | -0.00451
139 | AATTAATA | 0.254
140 | ATAATATA | 0.147
141 | ATCACGTG | 0.0284
142 | CGCTCCAG | -0.0694
143 | GAGTGCGC | 0.0772
144 | ATATGATA | 0.209
145 | TCAGAGCA | -0.138
146 | AAATTCCA | 0.0847
147 | GCACGGCA | 0.103
148 | GGGAGGTA | 0.0951
149 | ACAACAAC | -0.119
150 | ACTCAAAT | -0.0697

Row | Sequence | PBM E-score
151 | GACTTAAC | -0.35
152 | ACGCTGTG | -0.112
153 | AGGTGTCG | -0.116
154 | CTGGCCCA | -0.232
155 | AGCCGCTA | -0.0934
156 | CATCAGGA | 0.17
157 | AGACACCC | -0.149
158 | AATCAAGC | -0.0517
159 | CAACTTAC | -0.0863
160 | CCAGCCAC | -0.0288
161 | ATTATTGA | -0.188
162 | GAGCCTAC | 0.0395
163 | ATGAAACG | 0.0661
164 | CCCCGTAA | -0.0098
165 | GAAAAGTC | -0.00074
166 | AAGAGAGG | -0.0863
167 | AAATGTTG | -0.214
168 | TACATGGA | -0.00152
169 | AGAATGCT | -0.263
170 | CCTCTCAG | -0.29
171 | GACTCCGC | 0.282
172 | GGCGCTAA | -0.00474

From the supplement of paper PMC3334620
